From PubChem BioAssay AID504332 (National Center for Advancing Translational Sciences (NCATS), 2011)
The campaign covered roughly 350,000 compounds. About 31,000 (8.9%) were called active. The inconclusive results got no clear call from the source; some entries with a clear call stand among them for comparison. Calls come from the whole dose curve; as a rule, active = well fitted inhibition curve with a large enough effect; inconclusive = small, poorly fitted or top-dose-only effect; inactive = no such curve, though single readings can be large or run the other way. Potencies beside an inconclusive call are fits to weak or partial responses and may not hold up.
% is set by controls: 0 for no effect and ±100 for the full control effect; potency is the fitted concentration of half-maximal effect; tags give direction and shape of the fitted curve.
Note: nearly all actives have a fitted effect of over 75% in size.

These molecules were tested against Histone-lysine N-methyltransferase EHMT2 (Homo sapiens) (UniProt Q96KQ7) (assay: qHTS Assay for Inhibitors of Histone Lysine Methyltransferase G9a). Settings: G9a H3K9 monomethylation, AlphaScreen, 2 h; activity, negative = inhibition: at 59 µM (top of the series) unless noted.
UniProt Q96KQ7, sequence (Q96KQ7 whole entry, looked up): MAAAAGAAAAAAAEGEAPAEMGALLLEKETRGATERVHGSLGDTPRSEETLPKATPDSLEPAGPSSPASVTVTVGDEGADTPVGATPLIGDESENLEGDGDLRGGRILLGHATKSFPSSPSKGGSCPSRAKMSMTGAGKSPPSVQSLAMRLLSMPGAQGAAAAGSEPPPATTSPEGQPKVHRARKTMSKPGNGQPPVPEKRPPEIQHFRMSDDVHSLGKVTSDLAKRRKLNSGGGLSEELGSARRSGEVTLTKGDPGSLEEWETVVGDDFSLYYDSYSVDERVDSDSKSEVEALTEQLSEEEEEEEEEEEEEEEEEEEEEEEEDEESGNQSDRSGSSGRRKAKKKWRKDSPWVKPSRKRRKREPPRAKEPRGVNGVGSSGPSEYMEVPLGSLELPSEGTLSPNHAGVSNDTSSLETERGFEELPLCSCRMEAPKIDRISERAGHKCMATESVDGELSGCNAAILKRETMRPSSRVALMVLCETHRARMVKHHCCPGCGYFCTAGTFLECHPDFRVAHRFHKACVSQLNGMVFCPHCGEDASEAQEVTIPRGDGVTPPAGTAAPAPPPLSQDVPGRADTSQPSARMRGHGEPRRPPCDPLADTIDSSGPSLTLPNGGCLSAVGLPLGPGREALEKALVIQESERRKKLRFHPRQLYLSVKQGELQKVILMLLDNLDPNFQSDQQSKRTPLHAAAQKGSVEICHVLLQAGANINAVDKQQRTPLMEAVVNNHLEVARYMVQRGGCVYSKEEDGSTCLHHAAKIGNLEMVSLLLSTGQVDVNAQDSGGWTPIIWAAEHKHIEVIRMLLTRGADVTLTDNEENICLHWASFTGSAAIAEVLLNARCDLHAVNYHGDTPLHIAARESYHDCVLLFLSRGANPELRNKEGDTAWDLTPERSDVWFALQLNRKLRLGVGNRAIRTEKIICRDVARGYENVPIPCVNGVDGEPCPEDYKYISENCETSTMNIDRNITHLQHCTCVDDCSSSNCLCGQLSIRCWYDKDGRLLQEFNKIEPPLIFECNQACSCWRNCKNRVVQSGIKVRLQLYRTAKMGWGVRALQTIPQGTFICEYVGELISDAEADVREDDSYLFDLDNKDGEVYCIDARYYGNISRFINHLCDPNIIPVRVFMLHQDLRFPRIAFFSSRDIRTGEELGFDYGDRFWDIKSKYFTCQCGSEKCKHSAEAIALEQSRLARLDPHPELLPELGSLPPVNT
In short: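 AlphaScreen detection with an anti-monomethyl H3K9 antibody quantified product after a 2 h room-temperature reaction containing 500 nM biotinylated H3K9 peptide, 20 µM SAM and 20 nM enzyme, which had been preincubated 15 min with compound.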
In the case of `O=C1CCCC(=O)C1Sc1ccc(Cl)cc1`, the Potency is reported as inconclusive: 79.4 µM [inhibitor, partial curve, poor fit].
`CCOC(=S)SCc1cn2ccccc2n1` was tested, and the Potency was inconclusive: 35.5 µM [inhibitor, single point].
For `O=C(C1CCC(=O)N1C1CCCCC1)N1CCN(c2ccc(F)cc2)CC1` (stereo not given), the activity, negative = inhibition was inconclusive: -89.5% [inhibitor].
`Cc1ccccc1CN(C)C(=O)COC(=O)CSc1ccc([N+](=O)[O-])cc1` was tested, and the Potency was inconclusive: 50.1 µM [inhibitor, partial curve].
For `COCCn1nnnc1CN(Cc1cc2cc(OC)c(OC)cc2[nH]c1=O)C1CCCC1`, the “activity, negative = inhibition” value was inactive: 18.1%.
`Cc1ccc(S(=O)(=O)N(C)C)cc1NC(=O)COC(=O)c1c(C)noc1C` was tested, and the “activity, negative = inhibition” value was inactive: -6.63%.
For `CC(=O)Nc1cccc(NC(=S)Nc2cccc3ccccc23)c1`, the Potency was inconclusive: 79.4 µM [inhibitor, single point].
For `COc1ccc(N(C(=O)/C=C/c2ccccc2)C2=CC3CCC(C2)N3C)cc1` (stereo not given), the “activity, negative = inhibition” value was inactive: -30.4% [at 102 µM].
For `CC(C)n1ncc2c(C(=O)N3CCN(Cc4ccc(Br)s4)CC3)cc(C3CC3)nc21`, the Potency was inconclusive: 31.6 µM [inhibitor, single point].
For `CCN1CCN(c2ccc(S(=O)(=O)N(CC)CC)cc2[N+](=O)[O-])CC1`, the Potency was inconclusive: 39.8 µM [inhibitor, single point].
In the case of `Cc1nn(-c2cc(N3CCCCC3)ccc2[N+](=O)[O-])c(=O)c2ccccc12`, the Potency is reported as inconclusive: 14.1 µM [inhibitor, partial curve].
With `Cc1cc2nc(C)n(CCCNC(=O)Nc3ccccc3)c2cc1C` the “activity, negative = inhibition” value was inactive: 11.2%.
In the case of `CC1CCCCN1C(=O)c1cc(-c2ccc3c(c2)OCO3)on1` (stereo not given), the Potency is reported as inconclusive: 35.5 µM [inhibitor, single point].
For `C=CCOc1ccc(C2=NOC(C(=O)Nc3ccc4c(c3)OCCO4)C2)cc1OC` (stereo not given), the Potency was inconclusive: 56.2 µM [inhibitor, partial curve, poor fit].
With `CCN1CCN(c2nc(N)c([N+](=O)[O-])c(Nc3cccc(C)c3)n2)CC1` the Potency was inconclusive: 28.2 µM [inhibitor, single point].
For `CCOc1ccccc1NC(=O)c1ccccc1-c1nc(-c2ccccc2)no1`, the Potency was inconclusive: 79.4 µM [inhibitor, partial curve, poor fit].
`Cn1c(CC(=O)Nc2ccccc2)nnc1SCC(=O)Nc1ccc(N2CCOCC2)cc1` was tested, and the “activity, negative = inhibition” value was inactive: 7.51% [at 102 µM].
With `O=C(CN1C(=O)NC2(CCc3ccccc32)C1=O)Nc1ccccc1C(F)(F)F` (stereo not given) the Potency was inconclusive: 3.16 µM [inhibitor, single point].
`COC(=O)c1ccc(S(=O)(=O)NCCSc2nnc3c4ccccc4n(C)c3n2)cc1` was tested, and the “activity, negative = inhibition” value was inactive: -39%.
`COc1ccc(OC)c(NC(=O)CN(c2ccccc2OC)S(=O)(=O)c2ccc(C)cc2)c1` was tested, and the Potency was inconclusive: 7.94 µM [inhibitor, partial curve, poor fit].
In the case of `O=C1/C(=C/c2ccccn2)SC(=S)N1NS(=O)(=O)c1ccccc1`, the Potency is reported as inconclusive: 28.2 µM [inhibitor, single point].
In the case of `O=S(=O)(NC1CC1)c1ccc(S(=O)(=O)N(Cc2ccccn2)C2CCCC2)cc1`, the activity, negative = inhibition is reported as inactive: -5.84% [at 12.7 µM].
With `Cc1csc2nc(COC(=O)c3ccc(NC(=O)c4ccccc4Br)cc3)cc(=O)n12` the “activity, negative = inhibition” value was inactive: -3.25%.
With `O=C(Cc1ccccc1)c1c[nH]c(C(=O)NCc2ccncc2)c1` the Potency was inconclusive: 89.1 µM [inhibitor, partial curve, poor fit].
In the case of `COc1cc2c(cc1OC)CN(c1ccc([N+](=O)[O-])cc1Cl)CC2`, the Potency is reported as inconclusive: 25.1 µM [inhibitor, single point].
`COC(=O)c1ccccc1NC(=O)Cc1nc(-c2ccc(OC)cc2)no1` was tested, and the “activity, negative = inhibition” value was inactive: -25.5%.
With `COC(=O)Nc1ccc(S(=O)(=O)N2CCN(c3ccc(F)cc3)CC2)cc1` the activity, negative = inhibition was inactive: 7.7% [at 12.7 µM].
In the case of `Cc1oc(-c2cccs2)nc1CN1CCN(Cc2ccc(F)c(F)c2)C(CCO)C1` (stereo not given), the Potency is reported as inconclusive: 79.4 µM [inhibitor, partial curve, poor fit].
For `COc1ccc(-n2cnc3cc(C(=O)NCCC4=CCCCC4)ccc32)cc1`, the “activity, negative = inhibition” value was inactive: -39.7%.
`Cc1ccc(C(=O)N2CCN(c3ccccc3O)CC2)cc1S(=O)(=O)N1CCCCC1` was tested, and the Potency was inconclusive: 31.6 µM [inhibitor, partial curve, poor fit].
With `O=C1NC(c2ccncc2)Nc2sc3c(c21)CCCC3` (stereo not given) the Potency was active: 28.2 µM.
In the case of `O=c1c(-c2cccs2)nc2cnc(N3CCNCC3)nc2n1-c1ccccc1`, the activity, negative = inhibition is reported as inactive: -9.86% [at 12.7 µM].
`O=C(c1ccc(CSc2ccc(Cl)cc2)cc1)N1CCCC1` was tested, and the “activity, negative = inhibition” value was inactive: -0.4% [at 102 µM].
`CC(C)(C)C(=O)CN1C2=NCCCN2c2ccccc21` was tested, and the Potency was inconclusive: 89.1 µM [inhibitor, single point].
For `CC1(C)CC(NC(=O)c2ccncc2)CC(C)(C)N1O`, the Potency was inconclusive: 7.94 µM [inhibitor, partial curve, poor fit].
`Cc1cccc(OCC(=O)N2CCC(N3CCCCCC3)CC2)c1` was tested, and the activity, negative = inhibition was inconclusive: -86.6% [inhibitor].
`COc1ccc(/C=C2/SC(=O)N(CCC(=O)Nc3ccccc3C(=O)O)C2=S)cc1` was tested, and the Potency was inconclusive: 50.1 µM [inhibitor, single point].
`Cc1cccc(CSc2nc3c(c(=O)n2C)SCC3)c1` was tested, and the Potency was active: 50.1 µM.
For `Cc1ccc(-c2nnc(NC3CCCCC3)c3ccccc23)cc1S(=O)(=O)N1CCN(C)CC1`, the Potency was inconclusive: 31.6 µM [inhibitor, full curve].
With `CC(=O)N1CCc2cc(CNS(=O)(=O)c3ccccc3C(F)(F)F)ccc21` the “activity, negative = inhibition” value was inactive: 3.35%.
For `CCCOc1ccc(C(=O)Nc2cccc(NC(=O)c3ccc(Cl)cc3Cl)c2)cc1`, the Potency was inconclusive: 39.8 µM [inhibitor, partial curve, poor fit].
`Cn1cccc1Cc1nnc(SCC(=O)NCc2ccc3c(c2)OCO3)n1CCc1ccccc1` was tested, and the Potency was inconclusive: 50.1 µM [inhibitor, partial curve, poor fit].
In the case of `O=C(NCC(c1ccco1)N1CCCCC1)c1cc2c(s1)CCCC2` (stereo not given), the activity, negative = inhibition is reported as inactive: 22.1% [at 12.7 µM].
For `Cc1cccc(OCc2nnc(SCC(=O)N3CCCC3)n2C)c1`, the Potency was inconclusive: 70.8 µM [inhibitor, partial curve, poor fit].
With `O=C(CN1C(=O)CC(c2ccccc2)S(=O)(=O)c2ccccc21)N1CCCCC1` (stereo not given) the “activity, negative = inhibition” value was inactive: -38.7% [at 102 µM].
For `COc1ccc(Cl)cc1NC(=O)c1oc2ccc(S(=O)(=O)N3CCCCC3)cc2c1C`, the “activity, negative = inhibition” value was inactive: 4.69%.
For `COc1ccc(-c2ccc(CO)o2)cc1N`, the Potency was inconclusive: 79.4 µM [inhibitor, partial curve, poor fit].
In the case of `COc1ccc(OC)c(NC(=O)C2CCCN2C(=O)C2CCC(C)CC2)c1` (stereo not given), the Potency is reported as inconclusive: 100 µM [inhibitor, single point].
`O=C(CSc1nc2c([nH]c3ccccc32)c(=O)n1-c1ccc(F)cc1)Nc1ccc2c(c1)OCO2` was tested, and the “activity, negative = inhibition” value was inactive: 9.83%.
In the case of `CCC(Sc1ncccc1C(=O)OCCN1CCCC1=O)C(=O)NCc1ccco1` (stereo not given), the Potency is reported as inconclusive: 22.4 µM [inhibitor, partial curve, poor fit].
For `COC(=O)CC1Oc2ccc(Cl)cc2-n2cc(-c3ccc(C)cc3)nc21` (stereo not given), the Potency was inconclusive: 28.2 µM [inhibitor, single point].
With `COc1ccc(CN2CCN(C(=O)CC(C)C)CC2)cc1Br` the Potency was active: 10 µM.
In the case of `O=C(c1ccco1)N1CCN(C(=O)c2cc3c(s2)-c2ccccc2OC3)CC1`, the Potency is reported as active: 44.7 µM.
For `COc1ccc(N(C(=O)CNC(=O)c2ccco2)C(C(=O)NC2CCCCC2)c2ccncc2)cc1` (stereo not given), the “activity, negative = inhibition” value was inactive: -3.18%.
For `CCCCn1c(N)c(N(CCC(C)C)C(=O)C2CCCN(C(=O)c3ccc(Cl)cc3)C2)c(=O)[nH]c1=O` (stereo not given), the Potency was active: 39.8 µM.
For `O=c1[nH]n2c(=O)c3c([nH]c2c1N=Nc1ccccc1)CCC3`, the Potency was inconclusive: 39.8 µM [inhibitor, single point].
In the case of `O=C1C(=O)N(c2ccccn2)C(c2cccc(F)c2)/C1=C(/O)c1ccccc1` (stereo not given), the “activity, negative = inhibition” value is reported as inactive: 13.2% [at 102 µM].
With `COC(=O)c1c(-c2ccccc2)csc1N` the Potency was inconclusive: 25.1 µM [inhibitor, single point].
In the case of `CC(C)CN1C(=O)/C(=C/c2ccco2)NC1=S`, the Potency is reported as active: 39.8 µM.
For `COc1cc([N+](=O)[O-])ccc1N1C(=O)CC(Sc2nccc(C)n2)C1=O` (stereo not given), the Potency was inconclusive: 89.1 µM [inhibitor, single point].
`Cc1ccc(S(=O)(=O)N(C)CC(=O)Nc2cc(C)ccn2)cc1` was tested, and the “activity, negative = inhibition” value was inactive: 13.4% [at 102 µM].
For `O=C(/C=C/c1ccc(O)c(O)c1)OC(Cc1ccc(O)c(O)c1)C(=O)O` (stereo not given), the Potency was active: 3.55 µM.
`CN(C)c1ccc2c(O)cc(=O)n(C)c2c1` was tested, and the Potency was inconclusive: 7.08 µM [inhibitor, partial curve, poor fit].
With `CCNC(=O)CC1SC(=Nc2ccc(Cl)cc2)N(CC)C1=O` (stereo not given) the Potency was inconclusive: 14.1 µM [inhibitor, partial curve, poor fit].
With `Clc1ccc(Cl)c(OCCCCNCc2ccccc2)c1` the Potency was inconclusive: 15.8 µM [inhibitor, partial curve, poor fit].
In the case of `CCN1c2ccccc2-c2nc(SCC(=O)Nc3cc(C)c(Cl)cc3OC)ncc2S1(=O)=O`, the “activity, negative = inhibition” value is reported as inactive: -40.4%.
For `O=C1Nc2ccc(Br)cc2/C1=C/C(=O)c1ccc2c(c1)OCO2`, the Potency was active: 10 µM.
In the case of `CCCn1cc(S(=O)(=O)CC(=O)Nc2ccc(OC)cc2OC)c2ccccc21`, the Potency is reported as inconclusive: 39.8 µM [inhibitor, single point].
For `Cc1cc(Br)cc(C)c1OCC(=O)Nc1ccc(S(=O)(=O)Nc2ncccn2)cc1`, the “activity, negative = inhibition” value was inactive: -45.5%.
With `CCSc1nnc2c(n1)OC=Nc1ccc(Br)cc1-2` the activity, negative = inhibition was inconclusive: -79.1% [inhibitor].
